Measurements as given in publication PMC5362816, “Calmodulin is responsible for Ca^2+-dependent regulation of TRPA1 Channels” (Scientific Reports, 2017).

B1: TRPA1-V5-His (×6) (natural protein)
chain: not shown
notes: TRPA1, mouse cDNA in pcDNA3-V5-His-TOPO; The vector pcDNA3-V5-His-TOPO is surmised to add the tags at the C-terminus; also called full-length TRPA1; WT TRPA1; source: HEK293, transfected, in lysate
B2: TRPV1-V5 (natural protein)
chain: not shown
notes: TRPV1, rat cDNA in pcDNA3-V5-His-TOPO; source: HEK293, transfected, in lysate
B3: TRPV4 (V5-His tagged) (natural protein)
chain: not shown
notes: TRPV4, rat cDNA in pcDNA3-V5-His-TOPO; source: HEK293, transfected, in lysate

target: T1, CaM-agarose (Sigma) (UniProt P62157, coupled to agarose); test: pull-down; CaM-agarose (Sigma) incubated with HEK293 lysate expressing a V5-His-tagged TRP channel; 20 mM Tris-HCl pH 7.4, 150 mM NaCl, 1% NP-40, 4 °C; 1 mM Ca2+ (Fig. 2A) or 2 mM Ca2+ (Fig. 2B); blot with anti-V5; conditions: one partner purified
T1 construct: calmodulin coupled to agarose, bought from Sigma; Commercial reagent; also called calmodulin; source: bought: Sigma (CaM-agarose)

| Binder | relative binding to CaM (normalized by total input) |
| --- | --- |
| B1 | 22.5 |
| B2 | 0.3 |
| B3 | 1.4 |
